Source: paper PMC3317836
These are yes or no findings as the source states them, for the method shown. For part of these data: In cells and extracts the contact can be indirect. Some results given as binding are weak or reduced against the parent protein; the word gives no strength. For part of these data: Sequences can lack the tags named with a protein.

The chains behind the UniProt entries cited, without tags or fusion partners. Where a name states a change or a piece, a line headed by the entry shows the natural chain unless it says otherwise. A line that says so, or that is headed by a name, gives the form on record, which may keep a tag or linker. Residues count along the entry.
VSV-plexinB1 (wild type) (O43157, residues 20-2135): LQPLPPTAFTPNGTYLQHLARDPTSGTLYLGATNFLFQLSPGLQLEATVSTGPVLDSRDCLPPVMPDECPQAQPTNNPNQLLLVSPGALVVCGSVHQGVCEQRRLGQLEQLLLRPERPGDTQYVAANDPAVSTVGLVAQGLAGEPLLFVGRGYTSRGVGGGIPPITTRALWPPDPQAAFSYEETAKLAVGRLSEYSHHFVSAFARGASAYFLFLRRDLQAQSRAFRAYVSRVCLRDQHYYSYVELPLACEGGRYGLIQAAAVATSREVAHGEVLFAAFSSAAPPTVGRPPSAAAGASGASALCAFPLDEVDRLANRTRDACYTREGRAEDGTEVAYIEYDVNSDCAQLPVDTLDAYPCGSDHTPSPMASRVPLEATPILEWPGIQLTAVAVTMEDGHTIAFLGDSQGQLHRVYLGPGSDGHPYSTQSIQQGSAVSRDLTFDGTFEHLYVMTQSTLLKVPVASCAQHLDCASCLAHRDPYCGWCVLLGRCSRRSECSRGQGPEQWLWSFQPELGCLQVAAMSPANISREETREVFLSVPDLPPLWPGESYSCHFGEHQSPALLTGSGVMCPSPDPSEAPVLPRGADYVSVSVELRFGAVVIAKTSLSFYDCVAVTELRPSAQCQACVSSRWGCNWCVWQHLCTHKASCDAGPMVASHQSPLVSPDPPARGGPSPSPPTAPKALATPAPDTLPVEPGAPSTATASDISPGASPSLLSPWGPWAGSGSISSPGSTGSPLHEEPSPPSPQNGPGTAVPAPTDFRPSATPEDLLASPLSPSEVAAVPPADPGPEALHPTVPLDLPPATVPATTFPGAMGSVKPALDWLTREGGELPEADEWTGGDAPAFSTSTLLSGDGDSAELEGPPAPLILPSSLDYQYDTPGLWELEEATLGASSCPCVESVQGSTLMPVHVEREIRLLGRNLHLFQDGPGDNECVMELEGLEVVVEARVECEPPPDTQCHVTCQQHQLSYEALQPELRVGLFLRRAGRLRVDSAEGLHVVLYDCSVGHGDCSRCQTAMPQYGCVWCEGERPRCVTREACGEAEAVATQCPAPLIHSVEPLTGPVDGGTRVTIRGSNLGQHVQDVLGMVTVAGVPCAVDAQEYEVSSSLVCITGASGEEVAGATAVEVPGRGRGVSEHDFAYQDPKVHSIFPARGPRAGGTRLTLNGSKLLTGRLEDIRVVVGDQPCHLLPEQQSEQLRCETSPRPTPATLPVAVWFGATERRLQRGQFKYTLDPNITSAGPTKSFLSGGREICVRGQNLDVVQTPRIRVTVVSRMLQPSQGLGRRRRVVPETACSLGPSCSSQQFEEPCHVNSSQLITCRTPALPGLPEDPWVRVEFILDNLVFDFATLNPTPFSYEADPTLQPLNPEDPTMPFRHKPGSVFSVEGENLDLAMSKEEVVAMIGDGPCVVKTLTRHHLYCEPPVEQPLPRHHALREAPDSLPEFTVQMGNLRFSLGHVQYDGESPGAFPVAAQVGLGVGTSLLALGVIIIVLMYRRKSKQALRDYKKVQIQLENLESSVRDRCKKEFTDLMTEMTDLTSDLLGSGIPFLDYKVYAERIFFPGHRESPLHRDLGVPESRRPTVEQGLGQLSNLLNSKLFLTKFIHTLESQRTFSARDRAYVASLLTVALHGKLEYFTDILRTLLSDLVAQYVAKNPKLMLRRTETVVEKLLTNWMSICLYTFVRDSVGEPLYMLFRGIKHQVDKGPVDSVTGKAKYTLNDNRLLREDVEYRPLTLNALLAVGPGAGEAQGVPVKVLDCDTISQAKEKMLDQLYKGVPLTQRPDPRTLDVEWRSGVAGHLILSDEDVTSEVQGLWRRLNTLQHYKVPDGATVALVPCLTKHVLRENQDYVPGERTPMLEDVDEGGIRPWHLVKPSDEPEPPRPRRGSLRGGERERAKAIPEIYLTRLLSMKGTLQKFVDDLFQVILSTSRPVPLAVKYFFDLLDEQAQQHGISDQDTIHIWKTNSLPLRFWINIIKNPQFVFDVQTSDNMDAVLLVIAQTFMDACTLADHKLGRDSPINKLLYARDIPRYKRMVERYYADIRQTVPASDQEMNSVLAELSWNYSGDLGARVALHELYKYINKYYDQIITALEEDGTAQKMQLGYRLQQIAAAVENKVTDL
VSV-plexinB1 (T1795A) (O43157, form named): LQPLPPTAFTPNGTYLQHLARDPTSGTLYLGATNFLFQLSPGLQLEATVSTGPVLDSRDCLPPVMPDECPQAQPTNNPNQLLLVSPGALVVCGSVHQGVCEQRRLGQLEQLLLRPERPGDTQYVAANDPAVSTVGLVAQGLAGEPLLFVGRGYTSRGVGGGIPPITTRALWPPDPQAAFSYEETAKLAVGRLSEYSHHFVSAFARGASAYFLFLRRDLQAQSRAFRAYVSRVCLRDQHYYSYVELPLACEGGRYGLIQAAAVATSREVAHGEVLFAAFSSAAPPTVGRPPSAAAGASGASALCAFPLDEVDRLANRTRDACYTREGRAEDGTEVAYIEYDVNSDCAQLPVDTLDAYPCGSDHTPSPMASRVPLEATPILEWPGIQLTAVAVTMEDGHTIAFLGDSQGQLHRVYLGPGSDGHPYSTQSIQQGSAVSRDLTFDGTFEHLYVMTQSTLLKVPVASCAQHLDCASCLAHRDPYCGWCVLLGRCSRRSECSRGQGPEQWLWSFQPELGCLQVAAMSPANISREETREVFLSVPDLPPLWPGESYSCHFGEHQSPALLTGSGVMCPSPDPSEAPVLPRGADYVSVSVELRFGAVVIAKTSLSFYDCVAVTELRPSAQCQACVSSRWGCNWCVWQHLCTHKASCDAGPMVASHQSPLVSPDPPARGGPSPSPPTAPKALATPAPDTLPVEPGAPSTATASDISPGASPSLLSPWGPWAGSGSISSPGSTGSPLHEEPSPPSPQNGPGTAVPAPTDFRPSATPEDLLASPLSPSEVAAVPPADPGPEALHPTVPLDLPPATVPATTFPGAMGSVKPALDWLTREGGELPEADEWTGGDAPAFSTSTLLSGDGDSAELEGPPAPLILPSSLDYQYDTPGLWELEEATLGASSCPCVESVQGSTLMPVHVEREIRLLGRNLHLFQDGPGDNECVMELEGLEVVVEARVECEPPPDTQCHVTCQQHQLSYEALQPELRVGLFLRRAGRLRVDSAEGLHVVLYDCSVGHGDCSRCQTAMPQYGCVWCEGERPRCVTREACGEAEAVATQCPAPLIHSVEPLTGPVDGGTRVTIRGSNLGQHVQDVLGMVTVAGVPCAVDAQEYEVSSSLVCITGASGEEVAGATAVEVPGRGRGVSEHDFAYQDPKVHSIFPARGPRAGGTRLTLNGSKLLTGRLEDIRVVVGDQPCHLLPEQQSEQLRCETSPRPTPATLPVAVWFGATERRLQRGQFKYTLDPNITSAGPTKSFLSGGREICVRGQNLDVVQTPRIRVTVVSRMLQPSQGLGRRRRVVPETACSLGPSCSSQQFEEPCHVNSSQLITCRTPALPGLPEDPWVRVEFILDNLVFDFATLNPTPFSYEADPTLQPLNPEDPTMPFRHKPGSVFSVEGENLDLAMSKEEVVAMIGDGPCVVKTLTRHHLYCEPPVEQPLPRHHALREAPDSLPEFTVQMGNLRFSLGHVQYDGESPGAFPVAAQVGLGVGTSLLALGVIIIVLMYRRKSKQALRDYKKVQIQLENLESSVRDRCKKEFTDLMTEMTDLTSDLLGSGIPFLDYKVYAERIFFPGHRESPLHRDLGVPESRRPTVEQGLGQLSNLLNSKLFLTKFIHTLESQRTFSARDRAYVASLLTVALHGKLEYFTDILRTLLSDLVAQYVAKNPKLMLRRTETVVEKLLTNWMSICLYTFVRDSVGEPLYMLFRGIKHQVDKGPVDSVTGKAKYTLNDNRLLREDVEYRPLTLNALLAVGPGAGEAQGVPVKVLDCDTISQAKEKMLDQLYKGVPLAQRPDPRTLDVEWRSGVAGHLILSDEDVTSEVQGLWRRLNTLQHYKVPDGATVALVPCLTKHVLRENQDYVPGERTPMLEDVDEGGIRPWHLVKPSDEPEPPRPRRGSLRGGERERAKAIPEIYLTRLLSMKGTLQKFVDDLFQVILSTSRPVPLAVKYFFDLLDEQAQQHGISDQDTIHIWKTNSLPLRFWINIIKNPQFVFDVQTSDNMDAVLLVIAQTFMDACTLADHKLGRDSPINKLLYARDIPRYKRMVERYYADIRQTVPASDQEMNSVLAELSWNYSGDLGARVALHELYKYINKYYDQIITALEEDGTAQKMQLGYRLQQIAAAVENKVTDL
VSV-plexinB1 (T1697A) (O43157, form named): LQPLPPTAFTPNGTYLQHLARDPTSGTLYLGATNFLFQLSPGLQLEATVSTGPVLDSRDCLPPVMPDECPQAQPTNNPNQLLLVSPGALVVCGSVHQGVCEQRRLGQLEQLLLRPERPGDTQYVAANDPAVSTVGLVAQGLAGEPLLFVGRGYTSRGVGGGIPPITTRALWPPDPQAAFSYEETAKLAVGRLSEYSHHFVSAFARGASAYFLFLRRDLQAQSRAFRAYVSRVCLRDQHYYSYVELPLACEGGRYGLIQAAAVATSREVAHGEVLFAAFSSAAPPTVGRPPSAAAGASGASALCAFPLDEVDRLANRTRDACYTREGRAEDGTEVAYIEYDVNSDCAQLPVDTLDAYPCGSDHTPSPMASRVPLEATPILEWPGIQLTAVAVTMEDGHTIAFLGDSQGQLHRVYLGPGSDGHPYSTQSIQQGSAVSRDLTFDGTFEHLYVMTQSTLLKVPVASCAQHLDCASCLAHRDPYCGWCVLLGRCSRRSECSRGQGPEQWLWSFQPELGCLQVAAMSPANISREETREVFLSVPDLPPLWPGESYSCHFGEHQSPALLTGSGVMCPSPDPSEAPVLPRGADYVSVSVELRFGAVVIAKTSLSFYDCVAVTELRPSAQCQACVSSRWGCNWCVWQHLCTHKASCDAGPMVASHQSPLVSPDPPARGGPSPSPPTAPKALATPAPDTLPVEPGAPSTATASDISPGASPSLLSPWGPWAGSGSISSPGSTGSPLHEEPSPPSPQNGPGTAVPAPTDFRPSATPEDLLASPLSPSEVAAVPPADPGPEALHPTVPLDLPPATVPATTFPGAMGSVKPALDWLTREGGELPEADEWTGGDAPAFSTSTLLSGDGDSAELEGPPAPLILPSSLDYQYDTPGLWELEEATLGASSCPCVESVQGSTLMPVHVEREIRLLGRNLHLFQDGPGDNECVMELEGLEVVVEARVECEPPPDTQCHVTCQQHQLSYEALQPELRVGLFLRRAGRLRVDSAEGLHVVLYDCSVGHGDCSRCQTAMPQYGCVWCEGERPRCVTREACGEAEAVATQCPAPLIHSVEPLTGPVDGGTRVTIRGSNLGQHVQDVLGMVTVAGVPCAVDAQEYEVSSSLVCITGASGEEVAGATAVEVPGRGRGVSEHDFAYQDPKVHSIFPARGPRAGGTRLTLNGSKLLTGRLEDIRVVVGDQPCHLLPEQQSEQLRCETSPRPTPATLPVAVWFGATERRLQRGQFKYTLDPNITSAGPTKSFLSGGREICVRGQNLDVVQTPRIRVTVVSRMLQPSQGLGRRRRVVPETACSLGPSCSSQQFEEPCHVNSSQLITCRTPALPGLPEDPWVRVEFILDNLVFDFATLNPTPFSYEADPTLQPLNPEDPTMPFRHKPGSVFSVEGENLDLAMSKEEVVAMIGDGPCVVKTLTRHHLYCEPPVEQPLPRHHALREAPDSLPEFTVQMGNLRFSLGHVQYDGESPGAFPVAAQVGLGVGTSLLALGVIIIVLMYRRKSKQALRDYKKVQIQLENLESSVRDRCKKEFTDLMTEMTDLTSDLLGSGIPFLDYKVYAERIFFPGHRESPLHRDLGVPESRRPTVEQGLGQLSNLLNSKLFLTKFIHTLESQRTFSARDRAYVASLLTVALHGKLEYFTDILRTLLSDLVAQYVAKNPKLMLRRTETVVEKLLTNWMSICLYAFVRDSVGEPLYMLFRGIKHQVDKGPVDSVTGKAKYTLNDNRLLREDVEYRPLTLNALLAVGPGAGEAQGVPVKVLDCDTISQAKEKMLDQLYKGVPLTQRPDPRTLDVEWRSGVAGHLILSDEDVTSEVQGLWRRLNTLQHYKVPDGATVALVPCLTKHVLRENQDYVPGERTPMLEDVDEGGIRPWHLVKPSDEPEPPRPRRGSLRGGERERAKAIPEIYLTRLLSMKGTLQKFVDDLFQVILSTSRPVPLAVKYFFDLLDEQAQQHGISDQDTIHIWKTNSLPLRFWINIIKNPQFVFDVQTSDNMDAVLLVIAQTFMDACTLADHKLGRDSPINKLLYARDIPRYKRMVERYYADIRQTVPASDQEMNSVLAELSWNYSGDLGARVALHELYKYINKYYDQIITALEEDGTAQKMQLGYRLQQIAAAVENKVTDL

Columns and labels:
[1] = target: T1, Sema4D-Fc (UniProt Q92854); test: co-IP; HEK293T cells cotransfected with VSV-plexinB1 (WT or mutant) and Sema4D-Fc; lysate immunoprecipitated with anti-Fc antibody, plexinB1 detected
T1 sequence: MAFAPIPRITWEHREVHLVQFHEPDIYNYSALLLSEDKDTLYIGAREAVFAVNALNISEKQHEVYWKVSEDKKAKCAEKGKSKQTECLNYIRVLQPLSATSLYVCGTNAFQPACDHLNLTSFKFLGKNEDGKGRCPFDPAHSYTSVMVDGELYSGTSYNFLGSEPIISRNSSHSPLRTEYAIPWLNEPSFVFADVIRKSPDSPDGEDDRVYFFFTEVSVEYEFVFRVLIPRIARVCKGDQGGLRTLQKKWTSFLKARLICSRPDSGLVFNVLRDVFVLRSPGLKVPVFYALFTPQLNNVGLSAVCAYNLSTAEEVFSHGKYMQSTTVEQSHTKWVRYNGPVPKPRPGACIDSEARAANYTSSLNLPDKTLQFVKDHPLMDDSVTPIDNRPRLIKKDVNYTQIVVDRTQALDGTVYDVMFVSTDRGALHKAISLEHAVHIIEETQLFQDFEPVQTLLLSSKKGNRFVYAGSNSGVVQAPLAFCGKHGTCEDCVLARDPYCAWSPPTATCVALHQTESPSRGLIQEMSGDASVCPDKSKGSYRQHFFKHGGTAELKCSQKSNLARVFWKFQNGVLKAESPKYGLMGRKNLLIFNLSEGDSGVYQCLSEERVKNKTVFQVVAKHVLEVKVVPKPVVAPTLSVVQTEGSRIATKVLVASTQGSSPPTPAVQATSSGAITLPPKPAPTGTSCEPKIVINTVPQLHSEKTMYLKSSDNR

[2] = target: VSV-plexinB1 (T1697A) (UniProt O43157); test: co-IP; lysates of HEK293 cells co-expressing VSV-plexinB1 (WT or mutant) and PDZRhoGEF, ErbB2 or c-Met; 1 μg anti-VSV for 2 h at 4°C, Protein-G sepharose 2 h, washed 3 times, immunoblotting
[3] = target: VSV-plexinB1 (L1815P) (UniProt O43157); test: as above
[4] = target: VSV-plexinB1 (T1795A) (UniProt O43157); test: as above
[5] = target: VSV-plexinB1 (wild type) (UniProt O43157); test: as above
[6] = target: VSV-plexinB1 (T1697A) (UniProt O43157); test: in situ binding of an alkaline phosphatase fusion protein to transfected cells; COS-7 cells transfected with plexinB1 (WT or mutant) and RacL61 or vector, treated with HBAH containing 1,000 ng/ml Sema4D-AP for 90 min, washed, fixed, 65°C for 100 min, BCIP/NBT; bound alkaline phosphatase activity
[7] = target: VSV-plexinB1 (wild type) (UniProt O43157); test: as above
[8] = target: VSV-plexinB1 (L1815P) (UniProt O43157); test: as above
[9] = target: VSV-plexinB1 (T1795A) (UniProt O43157); test: as above

Substance | binding [1] | binding [2] | binding [3] | binding [4] | other results
VSV-plexinB1 (T1795A) (from UniProt O43157 20-2135) (receptor) | binds |  |  |  | 
VSV-plexinB1 (T1697A) (from UniProt O43157 20-2135) (receptor) | binds |  |  |  | 
c-Met (from UniProt P08581 25-1390) (receptor) |  | binds | binds | binds | 
ErbB2 (from UniProt P04626 23-1255) (receptor) |  | binds | binds | binds | 
PDZRhoGEF (from UniProt O15085 1-1522) |  | binds | binds | binds | binding [5]: binds
VSV-plexinB1 (L1815P) (from UniProt O43157 20-2135) (receptor) | binds |  |  |  | 
Sema4D-AP fusion protein (from UniProt Q92854 22-734) (ligand) |  |  |  |  | binding [6]: binds; binding [7]: binds; binding [8]: binds; binding [9]: binds
VSV-plexinB1 (wild type) (from UniProt O43157 20-2135) (receptor) | binds |  |  |  | 
